These results are taken from ChEMBL document CHEMBL4888484, “Replenishing the malaria drug discovery pipeline: Screening and hit evaluation of the MMV Hit Generation Library 1 (HGL1) against asexual blood stage Plasmodium falciparum ,using a nano luciferase reporter read-out” (2022).

As a reminder, the % Inhibition is the drop in the measured response relative to a control, in per cent.

Molecules are shown by their SMILES. Out of some 150,000 compounds screened, about 540 (0.36%) showed an effect of 50% or more. This is one part of the list.

For the assay, the system named is Plasmodium falciparum. As to the kind of experiment: Primary screen in NF54 nanoGlo assay, in single point, at 2uM, 72h; a lower Z score goes with more inhibition. It counts as functional, Erythrocyte. As to conditions: timepoint 72 hour.
Take `Cn1cc(CC(=O)Nc2ccccc2Nc2c(F)cccc2F)cn1`: the “% Inhibition” value was -9% and the Z score amounted to 0.8.

Regarding `O=C(Nc1cccc2c1CCCC2)[C@@H]1CCCO1`, the “% Inhibition” value is reported as -2% and the Z score is recorded as 0.19.

Regarding `COc1ccc2cc1Oc1cccc(c1)CO[C@H]1CCN(C(=O)CCn3nccc3C)C[C@H]1NC(=O)CC2`, the “% Inhibition” value was -21% and the Z score amounted to 2.71.

As for `Cc1ccc(CNC(=O)c2cccc3[nH]cc(CN4CCCC4)c23)o1`, the “% Inhibition” value is recorded as 7% and the Z score was -1.11.

Turning to `CC(C)c1nnc(COc2ccc([C@H]3CCOC3)cc2)o1`, the “% Inhibition” value is -8% and the Z score stood at 1.25.

For the compound `N#Cc1cccc(-c2nnc(NS(=O)(=O)c3cc(Cl)cc4c3OCC4)o2)c1`, the “% Inhibition” value is given as 24% and the Z score is recorded as -2.71.

Take `Cc1ccccc1OC1CN(C(=O)NC2(C3CC3)CC2)C1`: the “% Inhibition” value is recorded as -19% and the Z score turned out to be 2.6.

With `CC(C)c1ccccc1OC[C@@H](O)Cn1nccc1-c1cccnc1`, the “% Inhibition” value is -11% and the Z score stood at 2.02.

As for `Cc1cc(C)c(C(=O)O)cc1NC(=O)[C@@H]1CCCN1C(=O)NC(C)C`, the “% Inhibition” value turned out to be 5% and the Z score was -0.54.

Turning to `COc1ccnc(NC2CCCCCC2)n1`, the “% Inhibition” value came out at 3% and the Z score is given as -0.22.

For the compound `CCCn1nccc1C(=O)N1CCn2nc(CN3CCCCCC3)cc2C1`, the “% Inhibition” value was -5% and the Z score is reported as 0.69.

Turning to `O=C(N[C@@]1(CO)CCOC1)c1cccc(C(F)F)c1`, the “% Inhibition” value was 4% and the Z score was -0.59.

Consider `CCCn1c(C)nnc1CNC1(c2cccc(Cl)c2)CC1`, for which the “% Inhibition” value is -7% and the Z score is listed as 0.62.

As for `COc1ccccc1C=CCN(C)C1CCCCC1S(C)(=O)=O` (stereo unspecified), the “% Inhibition” value is listed as -8% and the Z score came out at 0.75.

Consider `COc1nc(C)cc(C)c1CNC(=O)NC1CCC2(CC1)CC2(F)F` (stereo unspecified), for which the “% Inhibition” value is reported as -2% and the Z score is listed as 0.29.

With `CCc1nncn1CCNC(=O)c1cc(F)cc(Cl)c1O`, the “% Inhibition” value turned out to be 29% and the Z score was -3.27.

`Cc1nc(CC(=O)NCc2snnc2C(C)C)cs1`: the “% Inhibition” value was -12% and the Z score is given as 1.61.

For the compound `Cc1cc(Cl)ccc1CN1CCN2C(=O)NC[C@H]2C1`, the “% Inhibition” value was 16% and the Z score is on record as -1.6.

`O=C(C1CCOCC1)N1Cc2ccccc2C1`: the “% Inhibition” value was -13% and the Z score is recorded as 1.63.

Turning to `Cc1cccc(S(=O)(=O)CCCOc2cc(C)c(C)nn2)c1`, the “% Inhibition” value is listed as -17% and the Z score was found to be 1.42.

For `Cc1nc2ccccc2c(C)c1C(=O)OCC(=O)Nc1ccc(S(=O)(=O)C(F)F)cc1`, the “% Inhibition” value is given as -1% and the Z score is reported as 0.06.

`COc1ccc(C)cc1-c1nc(C2CCOCC2)n[nH]1`: the “% Inhibition” value is -1% and the Z score is listed as 0.25.

As to `C1CCC2(CC1)CCN(c1nnc([C@@H]3CCCO3)n1CC1CCOC1)C2` (stereo partly specified), the “% Inhibition” value stood at 10% and the Z score is recorded as -1.13.

For the compound `COc1ccc(-c2ccnc(N[C@H]3CCN(C4CCOCC4)C3=O)n2)cc1`, the “% Inhibition” value was -13% and the Z score is recorded as 2.48.

For the compound `CCNC(=O)[C@H](C)NC(=O)c1cc(-c2cc(C)oc2C)nc2onc(C)c12`, the “% Inhibition” value came to 0% and the Z score is on record as -0.06.

Regarding `O=C1CC(CC(=O)N2CCOCC2CC2CCC2)CO1` (stereo unspecified), the “% Inhibition” value was -3% and the Z score was 0.52.

As for `O=C(Cc1ccc(F)cc1)N1CCc2nc(N3CCN(c4ccccc4)CC3)nc(N3CCCCC3)c2C1`, the “% Inhibition” value is reported as -4% and the Z score was determined as 0.67.

As to `Cc1n[nH]cc1CNC(=O)N[C@@H]1C[C@H]1c1cccc(F)c1`, the “% Inhibition” value is 1% and the Z score is listed as -0.06.

Regarding `CC(C)C(=O)N[C@@H]1c2ccccc2C2(CCNCC2)[C@H]1OCc1cccnc1`, the “% Inhibition” value stood at 3% and the Z score was -0.55.

Turning to `O=C(CCc1ccsc1)N1CCOC[C@@H](CO)C1`, the “% Inhibition” value is 9% and the Z score is on record as -1.11.

For the compound `CCn1ncc(C(=O)NCC(C)(C)N2CCOCC2)n1`, the “% Inhibition” value is reported as -12% and the Z score is 1.65.

With `CC[C@@H](C(=O)Nc1cccc(C)c1C)n1nc(-c2ccc(OC)cc2)c2c(C)onc2c1=O`, the “% Inhibition” value is -16% and the Z score is recorded as 1.98.

For the compound `CC(C)C[C@@H]1N[C@H](C(=O)NCc2ccccn2)Cc2c[nH]c3cccc1c23`, the “% Inhibition” value was found to be 4% and the Z score is on record as -0.7.

On to `CCc1nc(C)c(CN[C@@H](C)c2nc(C(C)C)no2)[nH]1`, for which the “% Inhibition” value is -12% and the Z score amounted to 2.5.

In the case of `CC(=O)N(C)C1CCN(CC(=O)NCc2cccs2)CC1`, the “% Inhibition” value is recorded as -7% and the Z score was determined as 1.03.

On to `CCN(Cc1ccncc1)c1ncnc2scc(-c3ccc(C)cc3)c12`, for which the “% Inhibition” value stood at 2% and the Z score is listed as -0.34.

Take `COc1cccc(CCc2ccccc2C(=O)N2CCC[C@@](O)(CO)C2)c1`: the “% Inhibition” value was -5% and the Z score amounted to 0.61.

Turning to `COc1ccc(-c2noc(Cn3nc(-c4ccc(C)c(C)c4)c4ccccc4c3=O)n2)cc1OC`, the “% Inhibition” value is on record as -9% and the Z score is reported as 1.49.

As for `Cc1nnc2cc(N3CCN(Cc4csc5c4CCCC5)CC3)cnn12`, the “% Inhibition” value was found to be 3% and the Z score is on record as -0.37.

`NC(=O)CO[C@@H]1CO[C@H]2[C@@H]1OC[C@@H]2NS(=O)(=O)c1cccs1`: the “% Inhibition” value is reported as -11% and the Z score came to 1.71.

Take `CNc1cc(C(=O)N2CCN(Cc3[nH]cnc3C)C[C@H](O)C2)ccn1`: the “% Inhibition” value is recorded as -9% and the Z score is reported as 1.33.

On to `CCCc1cc(NS(=O)(=O)c2ccc3c(c2)CCCC3=O)n(C)n1`, for which the “% Inhibition” value was -12% and the Z score is reported as 1.66.

Consider `CN(C)C(N)=NCCN(C)c1ccccc1`, for which the “% Inhibition” value was -1% and the Z score is 0.23.
